Measured values as given in the supplement of paper PMC10126150.
Values marked as one replicate rest on one cluster of the flow cell; about a third of the high ones do not repeat.

System: ATP
Assay: switch fluorescence ratio, 500 uM ATP over buffer (Cy3 cluster intensity, sum of 5 cycles each) (fold (ratio)); higher = stronger signal-on switching upon ATP binding; sequences stand for … in TCGTCGGCAGCGTCAGATGTGTATAAGAGACAGTTTTTTTTTTTTTTTTTTTTTTTTT…TC
Conditions: aptamer strand: ATP DNA aptamer (quencher-CACCTGGGGGAGTATTGCGGAGGAAGG + anchor), 100 nM annealed; ATP concentration: 500 uM; one replicate
Procedure, shortened: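 The quencher-labelled ATP aptamer, at 100 nM, was annealed to Cy3-labelled switching-strand clusters on a modified Illumina MiSeq flow-cell. The clusters were imaged in selection buffer, then after 15 min with 500 uM ATP at 22 °C, and this buffer/ATP cycle ran five times with NaOH stripping and re-annealing between runs. Per-cluster fluorescence ratios, summed target-cycle over summed buffer-cycle Cy3 intensity, were averaged per switch-domain sequence. Clusters outside 100-1000 RFU were excluded.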
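Note: ATP exposure 15 min at 22 °C before imaging.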

CCCCAGCGTG showed a switch fluorescence ratio of 5.91.
CTAACCCCAA gave a switch fluorescence ratio of 1.1.
Work on GCTGTCCATT yielded a switch fluorescence ratio of 1.
Sequence CGCAGGTAAG has a switch fluorescence ratio of 1.04.
Work on CGCGAACTGT yielded a switch fluorescence ratio of 0.958.
Work on GAGATCTCAG yielded a switch fluorescence ratio of 1.02.
Sequence CAAGATAGTT has a switch fluorescence ratio of 1.01.
CTGTCGCATT was tested, and the switch fluorescence ratio was 2.86.
GGCTTGAGAG showed a switch fluorescence ratio of 0.981.
Work on GAGGCCGCGT yielded a switch fluorescence ratio of 1.22.
CTTGGGGACC showed a switch fluorescence ratio of 1.
For GAGCCAGTAT, the switch fluorescence ratio was 1.02.
GGGCTGTGAG showed a switch fluorescence ratio of 0.984.
GGGTAGGCCT was tested, and the switch fluorescence ratio was 0.955.
Work on AGGATTCCGG yielded a switch fluorescence ratio of 1.02.
GTTAAGAG showed a switch fluorescence ratio of 0.976.
With GGTTTCAAGA the switch fluorescence ratio was 1.02.
With GGTATCATCA the switch fluorescence ratio was 1.02.
In the case of TCAGCTGAGT, the switch fluorescence ratio is reported as 0.984.
Work on CTGCTTGCTT yielded a switch fluorescence ratio of 0.988.
In the case of CGCAGCAACT, the switch fluorescence ratio is reported as 5.64.
AACGGAAAGT gave a switch fluorescence ratio of 1.18.
ATACTTGCCA was tested, and the switch fluorescence ratio was 1.09.
In the case of GTTCACGCCA, the switch fluorescence ratio is reported as 1.22.
CGCATCGGGA showed a switch fluorescence ratio of 1.02.
Work on CGGCGCAATG yielded a switch fluorescence ratio of 3.05.
TCGTATGCAT gave a switch fluorescence ratio of 1.02.
CTCAAATCGC gave a switch fluorescence ratio of 1.1.
With GGTCCAGTTC the switch fluorescence ratio was 1.03.
AGCTCAATAT gave a switch fluorescence ratio of 1.17.
CCGACACTGG showed a switch fluorescence ratio of 1.27.
With TTCTTTACGC the switch fluorescence ratio was 1.04.
Work on TGGATAAAAT yielded a switch fluorescence ratio of 1.08.
CGGGGTTGC showed a switch fluorescence ratio of 0.97.
For GATAGGTGGC, the switch fluorescence ratio was 0.953.
GAAATCGATG was tested, and the switch fluorescence ratio was 1.06.
For GGCCCTCTAC, the switch fluorescence ratio was 1.03.
TCGTCCGGGT was tested, and the switch fluorescence ratio was 0.994.
TAAAGATTAG gave a switch fluorescence ratio of 1.01.
AATTAACGTT gave a switch fluorescence ratio of 1.03.
GCACATATAG showed a switch fluorescence ratio of 1.07.
With TGGACAGGG the switch fluorescence ratio was 1.
For ACTGCGAGTA, the switch fluorescence ratio was 0.996.
With CCTCGAGAA the switch fluorescence ratio was 1.34.
For GATGCTAGGA, the switch fluorescence ratio was 1.03.
In the case of TTCGTTTGGC, the switch fluorescence ratio is reported as 1.1.
For ATTGGTTTCC, the switch fluorescence ratio was 1.07.
In the case of GTCATGGAAG, the switch fluorescence ratio is reported as 0.992.
TGAAGGCGGT showed a switch fluorescence ratio of 1.06.
CGTATTGCTT was tested, and the switch fluorescence ratio was 0.97.
AGTAAAATTG gave a switch fluorescence ratio of 0.99.
GCTCAATGGG showed a switch fluorescence ratio of 0.968.
For CAGTGGTACA, the switch fluorescence ratio was 1.03.
CTAAGTATTT gave a switch fluorescence ratio of 1.03.
With TCGATGTCAT the switch fluorescence ratio was 1.02.
Work on CAGTGTTTGG yielded a switch fluorescence ratio of 0.936.
GGGTCTGTCG was tested, and the switch fluorescence ratio was 0.96.
Work on CAGAATTTCA yielded a switch fluorescence ratio of 0.983.
Work on GGTCATTCAG yielded a switch fluorescence ratio of 0.975.
Work on TTTCCGGTCA yielded a switch fluorescence ratio of 0.994.
Work on TCTGCTCTAT yielded a switch fluorescence ratio of 1.03.
In the case of TTGTGAAGAA, the switch fluorescence ratio is reported as 0.958.
TGCACCCGGG showed a switch fluorescence ratio of 1.01.
For ACTAGTCTGT, the switch fluorescence ratio was 0.996.
GCGCGTATCT showed a switch fluorescence ratio of 1.03.
In the case of GGACTAAAGC, the switch fluorescence ratio is reported as 1.03.
In the case of TGAGTACTCC, the switch fluorescence ratio is reported as 1.01.
Work on GGTAATCATA yielded a switch fluorescence ratio of 0.974.
TAGTTCACTT showed a switch fluorescence ratio of 0.998.
Sequence AAATCCTATC has a switch fluorescence ratio of 1.04.
TCGCGTGGGA showed a switch fluorescence ratio of 1.04.
Work on AGCGGAATTC yielded a switch fluorescence ratio of 0.988.
For AGCCTCGTCT, the switch fluorescence ratio was 0.981.
CCGCATCGTC was tested, and the switch fluorescence ratio was 2.86.
In the case of TTAAACGGCC, the switch fluorescence ratio is reported as 1.04.
Work on GAATCATCTT yielded a switch fluorescence ratio of 1.01.
GTCTAGATAC showed a switch fluorescence ratio of 2.5.
Work on GAATGGGTGT yielded a switch fluorescence ratio of 1.01.
For TGTCAAATCT, the switch fluorescence ratio was 0.998.
For CCGAACAGCT, the switch fluorescence ratio was 1.7.
With ACGTCCTAAC the switch fluorescence ratio was 1.15.
With CACATGCATC the switch fluorescence ratio was 1.12.
In the case of CGTAAGACCC, the switch fluorescence ratio is reported as 1.22.
Sequence GGTGATGGAT has a switch fluorescence ratio of 0.984.
ACCGTTATCC gave a switch fluorescence ratio of 1.2.
Sequence CGCGTCCATA has a switch fluorescence ratio of 0.991.
TGGATACAGA showed a switch fluorescence ratio of 1.04.
CTTTTGTAAC was tested, and the switch fluorescence ratio was 1.01.
CTTTTATGAG was tested, and the switch fluorescence ratio was 1.
For CATAGTTCCA, the switch fluorescence ratio was 0.964.
CCCGATCCAT showed a switch fluorescence ratio of 0.973.
In the case of GGTCCGGTGC, the switch fluorescence ratio is reported as 1.26.
CGCGCTAGGT was tested, and the switch fluorescence ratio was 1.04.
For GGTTCCTTGG, the switch fluorescence ratio was 1.02.
CCGTAGGTGT gave a switch fluorescence ratio of 0.978.
GGTCTAATAT gave a switch fluorescence ratio of 1.03.
GAGGCTTGAA gave a switch fluorescence ratio of 1.07.
Sequence CTGGTAGGCA has a switch fluorescence ratio of 0.999.
TTCTTTTGAA was tested, and the switch fluorescence ratio was 0.966.
Work on TCGAATGACT yielded a switch fluorescence ratio of 1.02.
For CAGGTGTCGG, the switch fluorescence ratio was 1.04.
AAAGTCCGGC gave a switch fluorescence ratio of 1.04.
CTTGAAAG showed a switch fluorescence ratio of 0.978.
In the case of TGTATGTAGA, the switch fluorescence ratio is reported as 0.973.
Work on GGAGGCGCGT yielded a switch fluorescence ratio of 1.02.
With GGTACTCTGG the switch fluorescence ratio was 1.03.
For CGTGATTCTC, the switch fluorescence ratio was 1.22.
ACTTTTCGCA gave a switch fluorescence ratio of 1.03.
GTCCGCCTTT was tested, and the switch fluorescence ratio was 1.1.
TATTGATGTG was tested, and the switch fluorescence ratio was 1.
Sequence CCTGGACACG has a switch fluorescence ratio of 1.03.
TTTCAAATAA was tested, and the switch fluorescence ratio was 0.959.
AGCGTTATGG showed a switch fluorescence ratio of 1.02.
Work on GGCTCAGTAT yielded a switch fluorescence ratio of 0.996.
GTTGTGAGGT gave a switch fluorescence ratio of 0.989.
Work on GGTCGCCTCT yielded a switch fluorescence ratio of 0.985.
ATCTAGTTTT gave a switch fluorescence ratio of 1.01.
In the case of ATAGGGTATG, the switch fluorescence ratio is reported as 0.997.
In the case of GGTAACAGCA, the switch fluorescence ratio is reported as 1.01.
For ATACTGCAAC, the switch fluorescence ratio was 1.24.
Sequence GTTGACTCAG has a switch fluorescence ratio of 0.979.
In the case of TTTCAGCTTC, the switch fluorescence ratio is reported as 1.02.
For TGGTAGCGTG, the switch fluorescence ratio was 0.984.
With TTCGAGGCGT the switch fluorescence ratio was 0.967.
GCAAGATTAG gave a switch fluorescence ratio of 1.
Work on TTAGGGTGCT yielded a switch fluorescence ratio of 0.995.
For GGTAATGGCT, the switch fluorescence ratio was 1.1.
For CCGGAGGCTG, the switch fluorescence ratio was 1.04.
AGCGTTCAGG showed a switch fluorescence ratio of 1.01.
In the case of CGACCTGATC, the switch fluorescence ratio is reported as 1.71.
Sequence AGCAACACTT has a switch fluorescence ratio of 1.64.
ATAGGTATCG was tested, and the switch fluorescence ratio was 1.03.
In the case of GGACGGAAGT, the switch fluorescence ratio is reported as 1.01.
TAGTTTATCG was tested, and the switch fluorescence ratio was 0.965.
GGTGACAGTG gave a switch fluorescence ratio of 1.06.
Sequence GGTAGAACGA has a switch fluorescence ratio of 0.948.
Sequence ATTTTCTCGA has a switch fluorescence ratio of 0.973.
With CTCTTCTCGA the switch fluorescence ratio was 1.06.
In the case of TGGCAGAACT, the switch fluorescence ratio is reported as 1.03.
Work on CTAGAAGCAG yielded a switch fluorescence ratio of 1.02.
In the case of CAAAAGCGCG, the switch fluorescence ratio is reported as 1.13.
Work on TAGTCTGTCG yielded a switch fluorescence ratio of 0.961.
GACCGAGTTA gave a switch fluorescence ratio of 0.982.
CAATGCCACT gave a switch fluorescence ratio of 1.01.
ATAAGAAATG showed a switch fluorescence ratio of 0.987.
In the case of GCCGGTGTAC, the switch fluorescence ratio is reported as 1.18.
AAGCGTGGCA gave a switch fluorescence ratio of 0.999.
For CGCGCCTAAA, the switch fluorescence ratio was 0.96.
For TGCTCAATTA, the switch fluorescence ratio was 1.03.
CAGTATACTC showed a switch fluorescence ratio of 1.38.
AGCCGAATT showed a switch fluorescence ratio of 0.983.
For GAATCCTGCT, the switch fluorescence ratio was 1.03.
Sequence CTATTAACAC has a switch fluorescence ratio of 1.01.
With GAACTTAGAA the switch fluorescence ratio was 1.02.
Sequence TCGATTGTGA has a switch fluorescence ratio of 0.987.
Work on TTGGCTGGGT yielded a switch fluorescence ratio of 0.973.
GATTTACGGG gave a switch fluorescence ratio of 1.06.
TATCACACGG was tested, and the switch fluorescence ratio was 1.03.
For AAGACCGGCT, the switch fluorescence ratio was 1.05.
GATTTCGACG showed a switch fluorescence ratio of 1.05.
In the case of GAACATGTCT, the switch fluorescence ratio is reported as 0.96.
Work on GACGGTAGTC yielded a switch fluorescence ratio of 0.971.
With TACGTGTAGG the switch fluorescence ratio was 1.04.
In the case of GACCTTGGTT, the switch fluorescence ratio is reported as 1.04.
GAGAGCAGT showed a switch fluorescence ratio of 1.02.
For GCGGTAAGTG, the switch fluorescence ratio was 1.01.
GAGAATTTAT gave a switch fluorescence ratio of 0.983.
AGAAGCAG showed a switch fluorescence ratio of 0.98.
With TCAAAGGCAT the switch fluorescence ratio was 1.
CCGACATCGA was tested, and the switch fluorescence ratio was 2.96.
Work on GCTCGCCTCC yielded a switch fluorescence ratio of 1.43.
TTCCTGGCGT gave a switch fluorescence ratio of 1.01.
Sequence TTATCGGCTA has a switch fluorescence ratio of 1.05.
TAAAGCAATG gave a switch fluorescence ratio of 1.29.
TAGCGCATTC showed a switch fluorescence ratio of 2.42.
In the case of CGACTGATCT, the switch fluorescence ratio is reported as 1.01.
For CAAGTTTCAT, the switch fluorescence ratio was 0.954.
TCGTTTGCCT was tested, and the switch fluorescence ratio was 1.04.
Work on AAGATCGGCG yielded a switch fluorescence ratio of 0.995.
With TTAGGCCATT the switch fluorescence ratio was 0.993.
In the case of GAGGAATTCC, the switch fluorescence ratio is reported as 1.03.
TGATTGGCAG showed a switch fluorescence ratio of 0.964.
CTAGCCGAGC gave a switch fluorescence ratio of 1.08.
TGGTTATCCG gave a switch fluorescence ratio of 0.973.
Work on GGGATCGCGT yielded a switch fluorescence ratio of 1.02.
TGGTATGAGC gave a switch fluorescence ratio of 1.04.
CAAAAAGGGC was tested, and the switch fluorescence ratio was 1.01.
In the case of TCTCCAACGG, the switch fluorescence ratio is reported as 1.29.
Sequence TTGAGAGCTA has a switch fluorescence ratio of 0.973.
TCGGGGTCGA was tested, and the switch fluorescence ratio was 1.05.
GCGTACCGCG showed a switch fluorescence ratio of 1.02.
Sequence TAGCTGGTCG has a switch fluorescence ratio of 1.
Work on CCTGGTTGA yielded a switch fluorescence ratio of 0.983.
ACTATCGTTG gave a switch fluorescence ratio of 0.92.
Sequence GGCAACGAGC has a switch fluorescence ratio of 1.01.
Work on GCTTCGTCGG yielded a switch fluorescence ratio of 1.05.
With AGCATTTTTT the switch fluorescence ratio was 0.966.
GAACGGAGGT showed a switch fluorescence ratio of 0.993.
TCGAGATCAC gave a switch fluorescence ratio of 1.01.
With CCTATCTATT the switch fluorescence ratio was 1.
